Sequences with one replicate were seen in a single cluster, so their values are uncertain.
Tested on: ATP
Assay: switch fluorescence ratio, 500 uM ATP over buffer (Cy3 cluster intensity, sum of 5 cycles each) (fold (ratio)); higher = stronger signal-on switching upon ATP binding; sequences stand for … in TCGTCGGCAGCGTCAGATGTGTATAAGAGACAGTTTTTTTTTTTTTTTTTTTTTTTTT…TC
Conditions: aptamer strand: ATP DNA aptamer (quencher-CACCTGGGGGAGTATTGCGGAGGAAGG + anchor), 100 nM annealed; ATP concentration: 500 uM; one replicate
In short: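 Between each of five buffer/ATP cycles, the flow-cell was stripped with NaOH and re-annealed. Each cycle imaged Cy3-labelled switching-strand clusters, annealed to 100 nM quencher-labelled ATP aptamer on a modified Illumina MiSeq flow-cell, first in selection buffer and then after 15 min with 500 uM ATP at 22 °C. The fluorescence ratio is summed target-cycle over summed buffer-cycle Cy3 intensity per cluster, averaged per switch-domain sequence, with clusters outside 100-1000 RFU excluded.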
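Also: ATP exposure 15 min at 22 °C before imaging.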

Sequence | switch fluorescence ratio
AATATCCTTG | 1.01
CTTCCTTCGA | 4.91
GGCTGTGCGT | 0.97
GACGTGCAGC | 1.07
TATAATGGGT | 0.992
TTTCTGGAGT | 1.87
GACAAAATGG | 1.08
TAATAAGGCA | 1.04
CAACCGGAGG | 0.984
ATTCTTAGTG | 0.952
AAAGTAACGA | 1.06
TCCACTTGTG | 1.02
TTGCTGGACA | 1.05
AAAAGGCGGG | 1.05
TAGTCTGCCA | 1
TTCAATGTTC | 1.07
AGTATTTGAA | 0.927
GGTGTGTCAT | 0.987
AGTTTGGAA | 0.998
CTACCTCAGG | 2.03
CTCATCAGGT | 1.16
GATTGTAATG | 0.977
CAGTCATCTA | 1

Sequence | switch fluorescence ratio
CATCATATAT | 1
TCGAGTGGTC | 1.02
CGTCTTTGGC | 0.957
CGCCTCTCTG | 1.04
CTAGCCGCCT | 0.885
TTGGACAAGG | 1.04
CCGTACAGAT | 1.19
CATTTCCGTG | 1.02
CTGTTGGCT | 0.966
TAGCAAGTTT | 1.06
AAGCGTTTAG | 0.994
TAAGACGATA | 0.988
GAAGGCCGAT | 1.02
TAAGACCTA | 1.06
TCTGAATAGG | 0.988
GATAACCTCG | 1.03
AATACTTATT | 1.01
AAGCAGAAAC | 1.22
CGGATCCACC | 1.04
GGAATTAACC | 0.999
CAAGCCTTAA | 1.04
ATTAACGGTC | 0.987
GGAGGGTCGT | 0.92

Sequence | switch fluorescence ratio
TTGCCAATTA | 0.995
CAAATGGCTC | 1.02
TGCGTCTGCC | 1
ATACGGCACA | 1.42
TTAGGAACGA | 1.05
ACAAGCTAGG | 1.01
GTTGAGCCCC | 1.01
CATCTAGAAA | 1.01
ACTAAAGACC | 1.1
CGTACTCACG | 1.05
TCTTGGACCT | 1.26
GTAGTTAGGC | 1.03
CAGAGTTTCG | 1.02
ACATCCGTCC | 1.3
TTTCTTATCA | 1.02
AGTTAGTCTT | 0.956
ATAAGGTGCG | 1.04
CAACTGAATT | 0.985
GGACGTTAGC | 1.02
AATCATCGG | 0.965
GCGCAGTATA | 1.07
TATAAGATT | 0.967
GGGGCCGTGT | 0.931

Sequence | switch fluorescence ratio
TTCAACTATT | 0.985
GGGCGTCAGA | 1.02
TAGCTTGGGC | 0.999
TAAGTCAGCA | 1.05
AGGGCCTTGG | 0.986
CAGCGATGTT | 1.04
GCGCATGACG | 1.04
AACAGGGGAT | 1.09
GCGTTCGTGC | 0.994
GGTTCATTCG | 1
TGGGTCCACT | 1.01
CGCACACTT | 1.36
AAGGGCTAGT | 0.958
GATCGTACAC | 1.27
AAGGAATGGC | 1.04
CAGCAGACGA | 2.6
GGCAAAGTGC | 1.01
GTATTTCATG | 0.974
AGAATAGGTA | 1.04
TTGACCCGTG | 1.02
GTCATGGGGC | 1.03
AGATTTCACA | 0.987
AGGCTCGACG | 0.974

Sequence | switch fluorescence ratio
TTATGAAACA | 1.07
TTGAGATGGG | 1.01
AAAGGCAACC | 1.05
GTTGGAGTT | 1.01
CCAGTGCTTG | 1.04
ACGTGGTACG | 1.06
CCGGTCAGTC | 1.34
GAGGCAGCAT | 1.32
CTTGTCGCTG | 0.981
ACCAGGGCCA | 1.05
TTTAGGTCTG | 1.02
TTGACGTTCA | 1.08
GGGACGAAAG | 1.04
AGATCCGGAA | 1.11
GGATGACCAA | 0.99
GCCCTTAGAA | 0.983
GGGGGTGAGA | 0.995
CGGGGGAATC | 1.02
CATATGATTA | 0.996
CAGAATAGTG | 0.98
CCGGCCACTT | 1.26
CCTTCCATGT | 1.27
GCACTACTCG | 2.47

Sequence | switch fluorescence ratio
AGGAAGTCGG | 0.978
GATAACCCTG | 0.964
TGTGGGTACA | 1
GTGACTCTTG | 1.01
ATCTCCTCGC | 1.73
CCTTGGTGTT | 1.28
AGGTTTAGGC | 1.03
ACCATGCTTT | 0.996
CGTGCGAGAT | 1.05
GTTCGGCCGA | 0.965
GCCAGCGCAG | 0.974
AGGTCCAAGT | 1.05
AAATTGGATC | 1.01
GCGGTGGTCT | 1.02
GAATGTTGCG | 0.946
TAATGTGATT | 1.03
AAATATAAAG | 1.02
ATCTATACAC | 1
ACACGAAAGG | 1.05
GAGGGCAGCG | 0.981
TTCCTAGTTG | 1.03
GGGCCAGGTT | 1.02
GCATACATCC | 1.47

Sequence | switch fluorescence ratio
AGCCTACACA | 1.05
AGACGCTCAT | 1.09
CATTGGATAG | 1.01
TTAATCCG | 1.03
CCCAAAGGAC | 1.2
TTGCAAAACA | 1.1
AGTCTGGATT | 1.02
TTGGAGTGGC | 0.957
CTCGTCGCGC | 1.05
CGATACGCCG | 1.14
TATTATGGTG | 0.967
AATCGGCATG | 1.02
ATTATATTCC | 1.01
GCTTATATAG | 0.979
TTGAGTGAG | 0.947
GGGGTCACGT | 0.976
ATAGCCGCAC | 1.72
GTGATCCTTA | 0.981
AGCTCGTTTG | 0.988

Source: the supplement of paper PMC10126150
